Measurements: ChEMBL document CHEMBL4888484, “Replenishing the malaria drug discovery pipeline: Screening and hit evaluation of the MMV Hit Generation Library 1 (HGL1) against asexual blood stage Plasmodium falciparum ,using a nano luciferase reporter read-out” (2022)
Among all 150,000 compounds or so, about 540 (0.36%) showed an effect of 50% or more. Some of the results follow.

Test system: Plasmodium falciparum
Test: Primary screen in NF54 nanoGlo assay, in single point, at 2uM, 72h; a lower Z score goes with more inhibition
Format: functional, Erythrocyte
Details: timepoint 72 hour

| SMILES | % Inhibition | Z score |
| --- | --- | --- |
| Nc1c(NC(=O)NC2CCCC2)c(-c2ccc(Cl)cc2)nn1-c1ccccc1 | -3% | 0.4 |
| CC1(C(=O)Nc2cc(C3CC3)n[nH]2)CC1F (stereo unspecified) | -7% | 0.94 |
| COc1ccc(-c2ccc(C(=O)NC3CCN(C4CC4)CC3)c(F)c2)c(F)c1 | 0% | -0.03 |
| CCOc1cccc([C@@H]2CC(c3cccc(OC)c3)=NC3(CCN(CC)CC3)N2)c1O | -12% | 1.39 |
| CCCCc1nc(CN2CC[C@H](Oc3ccccc3)C2)c[nH]1 | 9% | -1.69 |
| Cn1ncc(C2CCC2)c1CNC(=O)OCCF | -1% | 0.19 |
| Cn1cnnc1[C@@H]1CCCN1c1ncc(C(=O)N2CCCCC2)cc1Cl | 3% | -0.32 |
| COc1ccc(C(=O)N2CCOCC2)cc1S(=O)(=O)N1CCCCCC1 | -14% | 1.29 |
| O=C(Nc1ccccc1Cl)N1CC[C@H](Oc2ncccc2C(=O)N2CCOCC2)C1 | -8% | 1.26 |
| COCc1cc(NCCCn2nc(C)c(Cl)c2C)ncn1 | -6% | 1.07 |
| CN(C(=O)[C@H]1CCCN(C2CCN(Cc3cccnc3)CC2)C1)C1CCCCCC1 | -4% | 0.5 |
| Cc1nn(CC(=O)N2CCOCC2)c(C)c1NC(=O)c1cc2nc(-c3ccccc3)cc(C(F)(F)F)n2n1 | 2% | -0.25 |
| Cc1cc(N[C@H]2CCOC2)c2ncccc2c1 | -12% | 1.25 |
| CCCc1cc(C(=O)N2C[C@H](OC)C[C@@H]2COc2cccnc2)no1 | -4% | 0.84 |
| COC[C@H]1CCCCN1C(=O)c1cc(COc2cccc3cccnc23)on1 | -12% | 1.79 |
| Cc1nc(C(C)C)sc1CNS(=O)(=O)C1CC1 | -5% | 0.52 |
| C[C@H]1CCc2c(cnc3c(C(=O)NC4CCCCC4)cnn23)C1 | 10% | -1.85 |
| CCn1cc(-c2ccc(Cl)cc2)cc1C(=O)NCc1ccncc1 | -2% | 0.34 |
| O=C(CCN1CCCCC1=O)N[C@@H]1CCC[C@H]1OCc1ccccc1 | -1% | 0.18 |
| CCCn1c(C(=O)NCCc2ccccn2)cc2cc(NS(=O)(=O)c3ccc(Cl)cc3)ccc21 | -18% | 2.16 |
| O=C1NCC2(CCN(C(=O)Nc3cnn(Cc4cccc(F)c4)c3)CC2)O1 | 2% | -0.44 |

| SMILES | % Inhibition | Z score |
| --- | --- | --- |
| CC1(C)CN(c2ccc(C(=O)N3CCCCC3)cn2)C[C@]1(C)O | -4% | 0.78 |
| COc1ccc(-c2cc(C(=O)N[C@H]3CCN(c4ccc(=O)n(C)n4)C3)c(C)n2C)cc1 | 67% | -11.23 |
| CC1CCC(NC(=O)c2cccn2Cc2noc(C3CC3)n2)CC1 (stereo unspecified) | -10% | 1.5 |
| Cc1cc(Cn2nnnc2C(C)(C)C)on1 | 0% | -0.05 |
| CN(Cc1ncnn1C)S(=O)(=O)c1cccs1 | -6% | 0.71 |
| Cc1cccc(Cl)c1NC(=O)N1CCO[C@H](c2ccsc2)C1 | -3% | 0.57 |
| COc1ccc(N2CC(C(=O)N(C)C[C@H]3CCCN4CCCC[C@@H]34)CC2=O)cc1 (stereo partly specified) | -7% | 0.9 |
| c1cn(CCCN2CCN(Cc3ccc4c(c3)CCO4)CC2)cn1 | -8% | 1.06 |
| Cc1ccc(C(=O)N2CCC[C@H](Oc3cccnn3)C2)cc1 | -10% | 1.13 |
| Cn1nnnc1N1CC2(CCOCC2)[C@@H]2CCC[C@@H]21 | -11% | 1.41 |
| Cc1nn(C)cc1C(=O)N[C@@H](C)C1(N2CCOCC2)CCCC1 | -12% | 1.1 |
| COc1ncccc1C(=O)NC[C@H](C)S(N)(=O)=O | 36% | -4.88 |
| COc1ccc([C@@]2(C(=O)NCCCN3CCCC3=O)CC2(C)C)cc1 | -11% | 1.18 |
| O=C(Nc1cccc(F)c1)C1(F)C(F)(F)C(F)(F)C(F)(F)C(F)(F)C1(F)F | 0% | -0.05 |
| COc1cc2c(cc1OC)[C@H](c1cccc(Cl)c1)N(C(=O)C1CCCCC1)CC2 | -9% | 1.68 |
| CC1(C)OC2COC3(COS(=O)(=O)N4CCN(c5ccccc5)CC4)OC(C)(C)OC3C2O1 (stereo unspecified) | -1% | 0.18 |
| CCn1nc(CN2CCCN(C(=O)c3ncoc3-c3cccc(C)c3)CC2)c2c1CCOC2 | 9% | -1.72 |
| Cc1nc2[nH]cc(C(=O)N[C@@H](C)c3cnn(C)c3C)c(=O)n2n1 | -5% | 0.92 |
| O=C(Nc1ccccc1)c1ccc(S(=O)(=O)Nc2cccc(O)c2)cc1 | -4% | 0.49 |
| COc1ccc(NC(=O)CC(C)(C)CC(=O)O)cc1 | 36% | -0.93 |
| CN1CCC(Nc2cc(C(F)(F)F)nc(NC3CCN(C)C3=O)n2)C1=O (stereo unspecified) | -4% | 0.55 |

| SMILES | % Inhibition | Z score |
| --- | --- | --- |
| CCn1c(=O)c(CCC(=O)Nc2cccc(C)c2C)nc2c(C)nn(-c3ccc(C)cc3)c21 | 36% | -1.04 |
| COc1ccc(OC)c(-c2ccnc(-n3ncc(C(=O)N4CCCC[C@@H]4CCN(C)C)c3C)n2)c1 | -3% | 0.39 |
| O=C(Cn1ccc2ccccc21)N1CC[C@H](c2ncon2)C1 | -11% | 1.92 |
| C#CCCC1(CCC(=O)N[C@H]2CC3(CCCC3)Oc3ccccc32)N=N1 | -17% | 2.1 |
| O=C(N[C@@H](N1CCCCC1)C(Cl)(Cl)Cl)c1ccc(Cl)cc1 | 32% | -4.14 |
| CCc1ccc(-n2c(=O)c3c(n2CC(=O)Nc2ccc4c(c2)OCCO4)Oc2ccc(Cl)cc2C3)cc1 | -16% | 1.63 |
| CON1C(=O)C(=O)N(OC)C2CCCCCC21 (stereo unspecified) | 8% | -1.43 |
| CCOCC(=O)NC[C@H](OC)c1ccc(C)s1 | 10% | -1.27 |
| CC(C)S(=O)(=O)CC(=O)N1[C@@H](C)CCC[C@H]1C(=O)OC(C)(C)C | 8% | -0.87 |
| CN1C[C@H]2CC[C@@H](C1)N(C(=O)c1ccc(C(=O)N3CCOCC3)cc1)C2 | -6% | 1.15 |
| CCc1nc(CNc2nc(C)ncc2CC)cs1 | -7% | 1.19 |
| C=CCNc1ncc(C2(c3ccccc3)CCCC2)s1 | -1% | 0.21 |
| Cc1cc(C)c(S(=O)(=O)CCC#N)c(C)c1 | -2% | 0.29 |
| COC(=O)c1cn(C2CCCCC2NS(=O)(=O)c2ccc3c(c2)CCCC3)nn1 (stereo unspecified) | -4% | 0.83 |
| N#Cc1cc(N2CC[C@@](O)(C(N)=O)C2)ccn1 | -12% | 1.53 |
| C[C@@H](O)[C@@H]1NC(=O)[C@@H](Cc2c[nH]c3ccccc23)NC1=O | 5% | -1.07 |
| CC(C)N(C)Cc1ccc(CNC(=O)c2cccc3c2O[C@@H](C)C(=O)N3)cc1 | 4% | -0.42 |
| Cc1cccc(N2CCN(C(=O)c3cc(-c4ccccc4)[nH]c3C)CC2)c1C | 8% | -1.05 |
| O=C(CCc1cccc(Br)c1)Nc1cccnn1 | -13% | 1.06 |
| CNCc1cc(-c2ccc3[nH]ccc3c2)ccc1OC | 4% | -0.49 |
| O=C(NCc1ccccn1)C1=NN(c2ccc(Cl)cc2)c2ncccc2S1(=O)=O | -10% | 1.25 |

| SMILES | % Inhibition | Z score |
| --- | --- | --- |
| O=C(c1cc(Br)cc(Br)c1O)c1nn[nH]c1C(F)(F)F | 5% | -0.62 |
| c1ccc(CO[C@H]2COCC[C@@H]2Nc2ncnc3[nH]cnc23)nc1 | -12% | 2.41 |
| c1cnc(N[C@H]2CCN(Cc3cc4n(n3)CCC4)C2)nc1 | 5% | -0.88 |
| CCOC(=O)c1ccc(NC(=O)Cc2cncn2C)c(NC(C)C)c1 | -6% | 0.84 |
| O=C(NCc1csc(N2CCOCC2)n1)c1cnccn1 | -11% | 1.79 |
| Cc1ncc2c(c1-c1noc(CN3CCCCCC3=O)n1)CCNC2 | -3% | 0.63 |
| O=C(NC1(c2c(F)cccc2F)COC1)c1cnn2c1OCCC2 | 8% | -0.95 |
| CC(C)n1cc(CNCc2nc(N(C)C)no2)cn1 | -6% | 1.15 |
| CC(C)C[C@H](NC(=O)c1ccnn1C(C)C)C(N)=O | 11% | -1.48 |
| COc1cc(OC)cc(N(C)C(=O)c2cscn2)c1 | 15% | -1.47 |
| CC(C)C(=O)NCCC(=O)Nc1ccc(F)cc1 | -4% | 0.53 |
| CC(C)CNS(=O)(=O)c1cc(-c2nc(C(C)(C)C)cs2)cs1 | 1% | -0.17 |
| C[C@H](Oc1ccccc1Br)c1nc(-c2nonc2N)no1 | -31% | 3.69 |
| CN(C)c1ccc(C(=O)N2CCc3c2cccc3C(F)(F)F)cn1 | -6% | 0.97 |
| CCC[C@H](C)NC(=O)C1CCN(S(=O)(=O)c2ccc3c(c2)CCC3)CC1 | -7% | 1.33 |
| C#CCCCC(=O)N1CC2(CCN(C(=O)OC(C)(C)C)CC2)C[C@@H]1C | -8% | 1.18 |
| COc1ccc(C[C@H]2CCOC3(CCN(C(=O)c4cccc(C#N)c4)CC3)C2)cc1 | -19% | 2.41 |
| CCc1ccc(CN2CCC(CNC(=O)c3ccncc3)CC2)nc1 | 2% | -0.26 |
| C[C@@H](c1ccc2c(c1)CCC2)n1cc(C(=O)N(C)C)nn1 | 0% | 0.02 |
| COCCn1nnc2c1CCN(C(=O)c1cnn(Cc3ccc(OC)cc3)c1)C2 | -7% | 1.58 |
